Experimental data as given in PubChem BioAssay AID504832 (National Center for Advancing Translational Sciences (NCATS), 2011).
The campaign covered roughly 310,000 compounds. About 18,000 (5.8%) were called active. This list was built around the results that the source calls inconclusive (neither active nor inactive); the mix of calls is not that of the screen. Calls come from the whole dose curve; as a rule, active = well fitted inhibition curve with a large enough effect; inconclusive = small, poorly fitted or top-dose-only effect, or another doubt; inactive = no such curve, though single readings can be large or run the other way. Potencies of inconclusive entries are left out as doubtful fits.

assay: Primary qHTS for delayed death inhibitors of the malarial parasite plastid, 48 hour incubation; conditions: P. falciparum luciferase growth in erythrocytes; series mostly up to 28.7 µM
In short: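 Cell-based growth assay: transgenic P. falciparum expressing firefly luciferase, cultured in red cells within RPMI 1640 containing 0.5% w/v Albumax, 24 mM bicarbonate and gentamycin. A drop in luciferase activity indicates inhibition.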
Potency is the fitted concentration of half-maximal effect; tags give direction and shape of the fitted curve.

SMILES	Potency
Cc1nn(Cc2ccccc2)c(C)c1NC(=O)CCCn1nc([N+](=O)[O-])cc1C	inconclusive [inhibitor, partial curve]
CCOC(=O)C1=NNC(C(=O)c2ccccc2)C1c1ccc(C)cc1 (stereo unspecified)	active: 1.65 µM
Cc1cccc(CN2CCN([C@@H](c3ccccc3)c3ccc(Cl)cc3)CC2)c1	inconclusive [inhibitor, single point]
CCOC(=O)c1ccc(NC(=O)CN(C)S(=O)(=O)c2ccc(OC)cc2)cc1	inconclusive [inhibitor, partial curve, poor fit]
Cc1ccc(NC(=O)c2cc(S(=O)(=O)N3CCC4(CC3)OCCO4)ccc2F)cc1	inconclusive [inhibitor, single point]
CC(=O)Nc1nc2ccccc2n1Cc1ccccc1	inconclusive [inhibitor, single point]
CC(C)C(=O)n1nc(-c2cccnc2)nc1NCc1ccc(F)cc1	inactive
Cc1ccc2c(c1)N(CC(=O)NC(C)CCc1ccccc1)C(=O)c1cccnc1O2 (stereo unspecified)	inconclusive [inhibitor, partial curve]
CCCCCCCn1ccc(=N)cc1	active: 0.928 µM
CC(C)C[C@@H](CO)N(Cc1ccccc1)S(=O)(=O)N(Cc1ccccc1)[C@H](CO)CC(C)C	active: 4.65 µM
CCOc1ccc(NC(=O)CSc2nc3ccccc3c(=O)n2CCCC(=O)NCC2CCCO2)cc1 (stereo unspecified)	inactive
O=C(CN1CCN(c2ccccn2)CC1)Nc1ccc(Cl)c(C(F)(F)F)c1	inactive
O=C(NCC1CCCO1)c1ccc2c(c1)N(Cc1ccccc1)CCS2 (stereo unspecified)	inconclusive [inhibitor, single point]
Cc1cccc(C(=O)OCN2C(=O)c3ccccc3C2=O)c1[N+](=O)[O-]	inactive
COc1ccccc1-c1c(C)nn2c(NCCN3CCCC3)cc(C)nc12	inconclusive [inhibitor, single point]
Cc1ccc(/C=C2/Sc3ccc(C(=O)NCc4ccccn4)cc3NC2=O)cc1	inactive
CCOC(=O)c1cc2sccc2n1CC(=O)N1CCCc2ccccc21	inconclusive [inhibitor, single point]
COc1ccc(C(=O)NC(=S)Nc2ccc3oc(=O)ccc3c2)cc1OC	inactive
Cc1sc2nc(CN3CCN(c4ccc(O)cc4)CC3)[nH]c(=O)c2c1C	inconclusive [inhibitor, partial curve, poor fit]
CCC(=O)NC(c1cc(Cl)c2ccccc2c1O)C(C)C (stereo unspecified)	inconclusive [inhibitor, partial curve, poor fit]
O=C(CSCC(=O)N1CCN(c2ccccc2)CC1)Nc1nc(-c2ccc(Cl)s2)cs1	inconclusive [inhibitor, single point]
COc1ccc(-n2ncc3c(N4CCC(C)CC4)ncnc32)cc1	inactive
CC(C)C(=O)NNC(=O)c1c(O)c2ccccc2[nH]c1=O	active: 11.7 µM
COc1ccccc1C(=O)CSc1nnc(-c2ccco2)o1	inconclusive [inhibitor, single point]

SMILES	Potency
C/C(=C\C(=O)c1ccncc1)Nc1ccccc1O	inconclusive [inhibitor, single point]
Cc1cc(NC(=O)COc2cccc3cccnc23)no1	inconclusive [inhibitor, single point]
Cc1ccc(-c2csc3ncnc(-n4nc(C)cc4N)c23)cc1	inconclusive [inhibitor, single point]
CCN(C(=O)c1cc(Cl)ccc1Cl)C1CCS(=O)(=O)C1 (stereo unspecified)	inactive
O=C1NC(=O)N(Cc2ccc(F)cc2)C(=O)/C1=C\c1ccc(N2CCCC2)cc1	inactive
COc1ccc([N+](=O)[O-])cc1-c1[nH]c(-c2ccc(C(=O)O)cc2)nc1-c1ccccc1	active: 8.28 µM
CN(C(=O)COC(=O)/C=C/c1ccc2ccccc2n1)c1c(N)n(Cc2ccccc2)c(=O)[nH]c1=O	inconclusive [inhibitor, single point]
COc1ccc(C2N(c3ccc(Cl)cc3)N=C(C(C)=O)N(C)N2C(C)=O)cc1 (stereo unspecified)	inconclusive [inhibitor, partial curve]
Cc1ccccc1NC(=O)/C(C#N)=C\c1cn(CC(=O)O)c2ccccc12	inactive
CCC(C(=O)Nc1ccc2[nH]ncc2c1)c1ccccc1 (stereo unspecified)	inconclusive [inhibitor, single point]
CC(C)C(NC(=O)c1ccc(C(C)(C)C)cc1)C(=O)NCC(c1ccccc1)N(C)C (stereo unspecified)	inconclusive [inhibitor, single point]
CCOC(=O)c1c(-c2cccs2)csc1N	inconclusive [inhibitor, single point]
CCCC[C@H](CN[C@@H](CNC)[C@H](C)CC)NCCC12CCC(CC1)C2	inconclusive [inhibitor, full curve]
COCCCNC(=O)c1cc(C(=O)Cc2ccccc2)c[nH]1	inconclusive [inhibitor, single point]
C=CCn1c(SCC(=O)Nc2ccc(OC)cc2)nc2c([nH]c3ccccc32)c1=O	inconclusive [inhibitor, full curve]
CCSc1nc(-c2ccc(OC)cc2)n(-c2nc3ccccc3s2)n1	inconclusive [inhibitor, single point]
O=C1NC(c2ccccc2)=C(c2nc3ccccc3s2)C(c2ccc(O)cc2)N1 (stereo unspecified)	active: 2.08 µM
CCN(Cc1ccccc1)C(=O)c1ccc(Cl)cc1[N+](=O)[O-]	inactive
Cc1nn(-c2ccc(F)cc2)c(Cl)c1/C=N/NC(=O)c1ccc(O)cc1	inconclusive [inhibitor, single point]
COc1ccccc1Nc1nc(N2CCOCC2)nc(N2CCOCC2)n1	inconclusive [inhibitor, partial curve, poor fit]
O=C(Cn1cc(C(=O)C2CC2)c2ccccc21)NCC1CCCO1 (stereo unspecified)	inactive
Cn1c(=O)c2c(nc(NCc3ccco3)n2C/C=C/c2ccccc2)n(C)c1=O	active: 8.28 µM
O=C(O)CN1C(=O)/C(=C/C=C/c2ccccc2)SC1=S	inactive
Cc1nn(C)c(C)c1NC(=O)CSc1nnc(C)n1-c1ccccc1	inactive

SMILES	Potency
CCOc1ccc(NC(=O)COc2ccccc2C(=O)NCc2ccccc2)cc1	inconclusive [inhibitor, single point]
Cc1ccc(Nc2nnc(SCC(=O)NC3CCCc4ccccc43)s2)cc1 (stereo unspecified)	inactive
CCOC(=O)c1c(C(=O)OCC)c(C)n(CCc2ccc(OC)c(OC)c2)c1C	inconclusive [inhibitor, partial curve]
CC1CCCCN1S(=O)(=O)c1ccc2c(c1)CCN2C(=O)CCC(=O)O (stereo unspecified)	inconclusive [inhibitor, full curve, poor fit]
COc1cccc(C(=O)Oc2cc(N)n(S(=O)(=O)c3ccc(C)cc3)n2)c1OC	inactive
CN1C(=O)C(C)(C)c2cc(S(=O)(=O)N(C)Cc3ccccc3)ccc21	inconclusive [inhibitor, partial curve]
CC(Oc1ccc(Br)cc1)C(=O)Nc1cc(S(=O)(=O)N2CCOCC2)ccc1N1CCCC1 (stereo unspecified)	inconclusive [inhibitor, partial curve]
CCOC(=O)N1CCN(c2cc3[nH]c(=S)[nH]c3cc2F)CC1	inactive
COc1cc(SSc2cc(OC)cc([N+](=O)[O-])c2N)c(N)c([N+](=O)[O-])c1	inconclusive [inhibitor, single point]
CCOc1ccc(-c2c(C(=O)N/N=C/c3ccc(C)cc3)nnn2-c2nonc2N)cc1	inconclusive [inhibitor, partial curve]
CC(SCc1ccccc1)C(=O)NCc1ccccn1 (stereo unspecified)	inconclusive [inhibitor, partial curve, poor fit]
O=S(=O)(c1cccc2cccnc12)N1CCN(c2ccc(F)cc2)CC1	inactive
CCOc1cc(OCC)cc(C(=O)NCCCN2CCOCC2)c1	inactive
COc1ccc(-c2nn3c(-c4ccco4)nnc3s2)cc1OC	inconclusive [inhibitor, single point]
N#CCC(=O)Nc1ccc(C(=O)NCc2cccc(Cl)c2)cc1	inactive
O=C(CSc1nnc(CNc2ccc(F)cc2)n1Cc1ccccc1)NCc1ccco1	inconclusive [inhibitor, single point]
COc1ccc(Cn2nnnc2CN(Cc2cc3ccc(C)cc3[nH]c2=O)C2CCCC2)cc1	active: 9.28 µM
CCCN(C(=S)Nc1ccccc1)C1CCS(=O)(=O)C1 (stereo unspecified)	inactive
COc1ccc(CC(=O)Nc2ccc(S(=O)(=O)N3CCC(C)CC3)cc2)c(OC)c1	inconclusive [inhibitor, partial curve, poor fit]
CC(=O)c1cccc(NC(=O)Nc2ccc(C(=O)N3CCCC3)cc2)c1	inactive
N#Cc1cncc(-c2ccc3c(c2)OCCOCCOCCOCCOCCO3)n1	inconclusive [inhibitor, single point]
CCOc1ccc2nc(Nc3nc4ccc(NC(C)=O)cc4s3)sc2c1	inconclusive [inhibitor, single point]
O=C(NCCc1ccc(F)cc1)C(=O)Nc1cc2c3c(c1)CC(=O)N3CCC2	inconclusive [inhibitor, partial curve]
